Experimental data from the supplement of paper PMC4723716.
± gives the uncertainty stated by the source. Whole data set: some 9,900 compounds, median “viability index relative to DMSO control” near 1, cut for the lowest 2% near 0.85. This is one part of the list.

System: Plasmodium falciparum NF54 stage V gametocytes
Assay: viability index relative to DMSO control (fraction); higher = less gametocyte killing
Conditions: 2.5 µM, incubation time: 72 h
Outline: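 P. falciparum NF54 stage V gametocytes (serum-free medium, 0.75% gametocytemia, 1.25% hematocrit) were exposed to compound at 2.5 µM for 72 hr at 37°C under low oxygen, then stained with MitoTracker Red CMXRos and saponin for one to two hours. Red particles of 20–70 µm2 in one field per well were counted, and the viability index is that count scaled to the plate mean of solvent-only wells.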

[1] = library set: Broad Institute DOS

SMILES | viability index [1] | viability index (library set: Broad Institute Blood Stage)
COc1ccc(C[C@H]2CCn3cc(nn3)COC[C@@H](C)NC2=O)cc1 | 1.02 ± 0.037 | –
O=C(Nc1ccccc1F)N[C@H]1CC[C@@H](CCNC(=O)C2CC2)O[C@@H]1CO | 1.14 ± 0.086 | –
CS(=O)(=O)N1[C@@H](CO)[C@@H](c2ccccc2)C12CN(C(=O)c1ccccc1F)C2 | 1.07 ± 0.073 | –
COC(=O)C[C@H]1CC[C@H]2[C@H](COc3ccc(NC(=O)Nc4cccc(C#N)c4)cc3C(=O)N2C)O1 | 1.1 ± 0.051 | –
Cc1noc(C)c1NC(=O)Nc1ccc2c(c1)C(=O)N([C@H](C)CO)C[C@H](C)[C@@H](CN(C)S(=O)(=O)c1ccc(F)cc1)O2 | 1.08 ± 0.042 | –
Cc1ccccc1-c1ccc([C@H]2[C@H]3CN(C(=O)c4ccncc4)CC(=O)N3[C@H]2CO)cc1 | 1.04 ± 0.027 | –
CCCN1[C@H](CO)[C@H](c2ccc(-c3ccccc3F)cc2)[C@@H]1CNC(=O)C1CCC1 | 0.99204 ± 0.00027 | –
COc1ccccc1-c1cnc2c(c1)C(=O)N([C@H](C)CO)C[C@H](C)[C@H](CN(C)C(=O)CC1CC1)O2 | 1 ± 0.11 | –
O=C(Cc1ccncc1)N1CC[C@@H]2[C@H](CO)Nc3ccc(Br)cc3[C@@H]21 | 1.077 ± 0.0015 | –
COc1ccc([C@@H]2C/C=C\C[C@H](c3ccc4c(c3)OCO4)NC(=O)[C@H](c3ccccc3)CC(=O)N2)c(OC)c1 | 1.04 ± 0.056 | –
COc1cccc(-c2ccc3c(c2)[C@H]2[C@H](CCN2C(=O)c2ccccn2)[C@H](CO)N3)c1 | 1.036 ± 0.0019 | –
O=C(NCCc1ccccc1)[C@H]1[C@H](CO)[C@H]2Cn3c(ccc(-c4cccc(F)c4)c3=O)[C@@H]1N2 | 1.04 ± 0.025 | –
Cc1nn(C)cc1NC(=O)C[C@H]1CC[C@@H]2[C@H](COc3ccc(NC(=O)c4cccc(F)c4)cc3C(=O)N2C)O1 | 1.13 ± 0.13 | –
COC(=O)C[C@H]1C=C[C@H](N)[C@H](CO)O1 | 1.07 ± 0.11 | –
CO[C@H](CN(C)C(=O)c1cc(Cl)cc(Cl)c1)[C@@H](C)CN(C(=O)Nc1ccc(F)cc1)[C@@H](C)CO | 0.994 ± 0.031 | –
N#C[C@@H]1[C@H](c2ccccc2C2=CCCCC2)[C@H](CO)N1C(=O)Nc1ccccc1F | 1.04 ± 0.055 | –
Cc1noc(C)c1S(=O)(=O)N(C)C[C@H]1Oc2ccc(N(C)C)cc2C(=O)N([C@H](C)CO)C[C@@H]1C | 1.03 ± 0.052 | –
CN(C)C(=O)c1cccc(-c2ccc3c(c2)[C@@H]2[C@@H](CCN2C(=O)Cc2ccccc2)[C@H](CO)N3)c1 | 0.991 ± 0.022 | –
O=C(C[C@@H]1CC[C@H]2NC[C@@H](O)COC[C@@H]2O1)Nc1nccs1 | 1.05 ± 0.015 | –
CCCC(=O)Nc1ccc2c(c1)OC[C@@H](C)N(Cc1ccccc1F)C[C@@H](C)[C@H](OC)CN(C)C2=O | – | 0.93 ± 0.05
N#C[C@H]1[C@@H](c2ccc(-c3cccc(F)c3)cc2)[C@H](CO)N1c1nc(-c2ccccc2)cs1 | 1.099 ± 0.0076 | –
CCCC(=O)Nc1ccc2c(c1)C(=O)N(C)[C@H]1CC[C@@H](CC(=O)NCc3cccc(F)c3)O[C@H]1CO2 | 1.06 ± 0.028 | –
COCC(=O)N1CC(=O)N2[C@H](CO)[C@H](c3ccc(-c4ccccc4F)cc3)[C@@H]2C1 | 0.992 ± 0.09 | –
O=C(CC(F)(F)F)N1C[C@@H]2[C@H](c3ccccc31)[C@@H](CO)N2CC1CCOCC1 | 1.01 ± 0.13 | –

SMILES | viability index [1] | viability index (library set: Broad Institute Blood Stage)
C[C@H]1CN([C@@H](C)CO)C(=O)CCCn2nncc2CO[C@H]1CN(C)S(=O)(=O)c1cn(C)cn1 | 1.04 ± 0.027 | –
C[C@H](CO)N1C[C@H](C)[C@@H](CN(C)S(=O)(=O)c2ccc([N+](=O)[O-])cc2)OCc2ccccc2-c2ccccc2C1=O | 0.967 ± 0.051 | –
N#C[C@@H]1[C@@H](c2ccccc2)[C@H](CO)N1C(=O)Nc1cccc(F)c1 | 1.04 ± 0.032 | –
COc1ccc(NC(=O)N2CC(=O)N3[C@H](CO)[C@H](c4ccc(Br)cc4)[C@@H]3C2)cc1 | 0.909 ± 0.019 | –
CN(C)CC(=O)N1[C@H](CO)[C@@H](c2ccccc2)C12CN(CC1CCOCC1)C2 | 1.13 ± 0.051 | –
COc1cccc(NC(=O)Nc2ccc3c(c2)C(=O)N(C)C[C@@H](OC)[C@@H](C)CN[C@@H](C)CO3)c1 | 0.986 ± 0.032 | –
Cc1ccccc1-c1ccc([C@H]2[C@H]3CNC[C@@H]2N3Cc2ccccn2)cc1 | 1.07 ± 0.084 | –
O=C(C[C@H]1CC[C@H]2[C@@H](COC[C@H](O)CN2Cc2ccc3c(c2)OCO3)O1)N1CCCCC1 | 1.03 ± 0.1 | –
COCC#Cc1ccc([C@@H]2[C@@H](CO)N3CCCCN(C(=O)NC4CCCC4)C[C@@H]23)cc1 | 1.01 ± 0.02 | –
CCC(=O)N1C[C@H](O)COC[C@@H]2O[C@@H](CC(=O)NC)CC[C@H]21 | 1.02 ± 0.08 | –
COCC(=O)N1CC[C@@]2(CC1)CN(Cc1ccccc1Cl)[C@@H](CO)c1[nH]c3cc(OC)ccc3c21 | 1.049 ± 0.0075 | –
O=C(C[C@@H]1C=C[C@H](NS(=O)(=O)c2ccc(F)cc2)[C@H](CO)O1)N1CCc2ccccc2C1 | 1.06 ± 0.12 | –
Cc1noc(C)c1NC(=O)N(C)C[C@@H]1OCc2cn(nn2)CCCC(=O)N([C@@H](C)CO)C[C@@H]1C | 1.02 ± 0.033 | –
N#C[C@H]1[C@H](c2ccccc2C2=CCCCC2)[C@H](CO)N1C(=O)c1ccccn1 | 1.04 ± 0.15 | –
COc1cccc(-c2ccc([C@H]3[C@H]4CNC[C@@H]3N4C(=O)Nc3ccc4c(c3)OCO4)cc2)c1 | 1.1 ± 0.085 | –
COc1ccc(S(=O)(=O)N(C)C[C@@H]2Oc3c(NC(=O)c4nc5ccccc5s4)cccc3C(=O)N([C@@H](C)CO)C[C@@H]2C)cc1 | 1.06 ± 0.12 | –
CN1[C@@H]2c3ccc(-c4ccc(F)cc4)c(=O)n3C[C@@H]2[C@@H](CO)[C@@H]1C(=O)NCc1ccccn1 | 1.042 ± 0.0075 | –
CCCNC(=O)N[C@@H]1C=C[C@@H](CC(=O)N2CCN(C)CC2)O[C@@H]1CO | 1.11 ± 0.056 | –
O=C(N[C@@H]1CC[C@@H](CCNS(=O)(=O)c2ccc(F)cc2)O[C@@H]1CO)C1CCC1 | 1.01 ± 0.18 | –
CO[C@H]1CN(C)C(=O)c2cc(NC(=O)NC3CCCCC3)ccc2OC[C@H](C)N(CC2CCOCC2)C[C@H]1C | 1.03 ± 0.052 | –
CO[C@@H](CN(C)C(=O)c1cc(Cl)cc(Cl)c1)[C@@H](C)CN(C(=O)Nc1ccc(F)cc1)[C@H](C)CO | 1.1 ± 0.09 | –
CO[C@@H](C(=O)N(C)C[C@H]1OCc2ccccc2-c2ccccc2C(=O)N([C@@H](C)CO)C[C@H]1C)c1ccccc1 | 1.02 ± 0.015 | –
CO[C@@H](C(=O)N(C)C[C@H]1OCc2ccccc2-c2ccccc2C(=O)N([C@@H](C)CO)C[C@@H]1C)c1ccccc1 | 1.01 ± 0.016 | –
